# Test results as given in PubChem BioAssay AID1345083 (National Center for Advancing Translational Sciences (NCATS), 2018).
# Out of some 94,000 compounds screened, about 6,200 (6.6%) were called active. The shares of active, inactive and inconclusive entries below differ from those in the screen. Calls follow the shape of the dose curve; as a rule, active = well fitted inhibition curve with a large enough effect; inconclusive = small, poorly fitted or top-dose-only effect; inactive = flat fitted curve, though single readings scatter. Potencies beside an inconclusive call are fits to weak or partial responses and may not hold up.
# Test: Cytotoxic Profiling in HEK 293 Cell Line of Diverse Libraries Using Quantitative High-Throughput Screening; also: nearly all actives have a fitted effect of over 60% in size
# Conditions: HEK 293 viability, ATP luminescence (CellTiter-Glo), 48-72 h; series mostly up to 115 µM
# In short: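 ATP-coupled CellTiter-Glo luminescence served as viability read-out, recorded 10 min after reagent addition at room temperature. HEK 293 cells, 250 cells/well, had been incubated with pintool-transferred compound for 48 or 72 hr at 37 degree Celsius.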
# Potency is read from the fitted curve at half-maximal effect; tags tell the direction and shape of the fitted curve.
row,SMILES,Potency
1,CN1CC(C(=O)NCCCc2ccccc2)NC1=O (stereo not given),inactive
2,Cc1ccc2nc(CO[C@H]3CN(Cc4ccc(C(F)(F)F)cc4)C[C@H]3F)[nH]c2c1,"inconclusive: 63.1 µM [inhibitor, partial curve, poor fit]"
3,CC(C)CCNC(=O)Cn1nc2n(c1=O)CCCCC2,inactive
4,CC(C)C(=O)Nc1ccc(C2(C(=O)NCCN3CCCCC3)CCCCC2)cc1,inactive
5,COCC(=O)Nc1ncncc1-c1noc([C@@H]2CCCN2Cc2cc(OC)c(OC)c(OC)c2)n1,"inconclusive: 89.1 µM [inhibitor, partial curve, poor fit]"
6,COc1ncccc1CN1CCC2(CC1)Cc1ccccc1CNC2=O,inactive
7,O=C(c1ccc(C(F)(F)F)cc1)N1CCC2(C1)C(=O)N(Cc1ccccc1)c1ccccc12 (stereo not given),active: 22.4 µM
8,Cc1cn2nc(C(=O)N3CCC(C(=O)NCc4cccnc4)CC3)cc2c(=O)[nH]1,inactive
9,CCc1cc(=O)n(CC(=O)Nc2cccc(C#N)c2)c(-c2ccccc2)n1,inactive
10,COc1ccc(NC(=O)[C@@H]2C[C@@H](c3cccc(C(F)(F)F)c3)N(Cc3cnn(C)c3)C2)cc1,"inconclusive: 70.8 µM [inhibitor, partial curve, poor fit]"
11,COc1ccc(C(=O)N2CCCN(c3cc(-c4ccc(OC)cc4)[nH]n3)CC2)cc1,"inconclusive: 56.2 µM [inhibitor, partial curve, poor fit]"
12,COc1cccc(-c2ccc(C(=O)N3CCC(C(=O)NCCCc4ccccc4)CC3)cc2)c1,"inconclusive: 56.2 µM [inhibitor, partial curve, poor fit]"
13,O=C(NCC1CC1)C1CCCN(Cc2cccc(-c3ccc(F)cc3F)c2)C1 (stereo not given),"inconclusive: 44.7 µM [inhibitor, partial curve, poor fit]"
14,COc1ccccc1CC(=O)Nc1cccn2nc(C(C)C)nc12,"inconclusive: 56.2 µM [inhibitor, partial curve, poor fit]"
15,Cc1cccc(CN2CCCC(COc3ccccc3C(=O)N3CCCC3)C2)c1 (stereo not given),"inconclusive: 89.1 µM [inhibitor, single point]"
16,Cc1cccc(Cl)c1NC(=O)CN1C(=O)NC(c2ccc(Cl)cc2)C2=C1COC2=O (stereo not given),active: 31.6 µM
17,COc1ccccc1-c1cc2c(nc1OC)nc(CC1CC1)n2C,"inconclusive: 112 µM [inhibitor, partial curve, poor fit]"
18,CC1(C(=O)NCc2ccncc2)CCCc2cnc(NCc3ccccc3)nc21 (stereo not given),active: 89.1 µM
19,CCc1cccc2c(C(CC(=O)NCCOC)c3ccc(OC)cc3OC)c[nH]c12 (stereo not given),"inconclusive: 79.4 µM [inhibitor, partial curve]"
20,CN1CCN(c2ccc(-c3nccc4c(=O)cc(N(C)c5ccccc5)oc34)cn2)CC1,"inconclusive: 50.1 µM [inhibitor, partial curve, poor fit]"
21,COC(=O)N1CCC(N2C(=O)c3c(c(C)nn3-c3ccccc3)C2C)C1 (stereo not given),"inconclusive: 79.4 µM [inhibitor, partial curve, poor fit]"
22,COc1ccccc1CN(Cc1ccccc1OC)C[C@@H]1C=C(C)[C@H](Cc2nc3c(C)cccc3[nH]2)C[C@H]1C(C)C,active: 15.8 µM

row,SMILES,Potency
1,CC(=O)Nc1ccc(CN2CCOC[C@H]2c2ncc(-c3ccc(Cl)cc3)[nH]2)cc1,"inconclusive: 112 µM [inhibitor, partial curve, poor fit]"
2,COCC(=O)NC[C@H]1CCN(Cc2ccc(OC)cc2)C[C@H]1N(C)C,inactive
3,O=S(=O)(Cc1ccccc1)N1CCCC(Cc2noc(-c3cccnc3)n2)C1 (stereo not given),"inconclusive: 70.8 µM [inhibitor, single point]"
4,COc1ccc(-c2noc(CC3CCN(C(=O)c4ccc(OC)nc4OC)CC3)n2)cc1,active: 20 µM
5,CC(C)(C)NC(=O)C[C@@H]1CCNC[C@@H]1Cc1cc(COc2ccccc2)on1,"inconclusive: 126 µM [inhibitor, single point]"
6,COc1ccc(N2Cc3c(NC4CCCCCC4)ncnc3N(C)CC2=O)cc1,"inconclusive: 89.1 µM [inhibitor, single point]"
7,CC1CN(c2ccccc2C#N)C(=O)CN1C(=O)Cc1c[nH]c(=O)[nH]c1=O (stereo not given),inactive
8,COc1ccccc1CN1Cc2cc(NC(=O)c3ccc(C#N)cc3)ccc2OC(C)C1=O (stereo not given),"inconclusive: 44.7 µM [inhibitor, partial curve, poor fit]"
9,COc1ccc(-c2noc([C@@H]3CCCN3C(=O)c3cc(Cl)ccc3F)n2)cc1OC,"inconclusive: 35.5 µM [inhibitor, partial curve, poor fit]"
10,COc1ccc(S(=O)(=O)NC[C@@H]2C=C(C)[C@H](CC(=O)N(C)Cc3cccnc3)C[C@H]2C(C)C)cc1,"inconclusive: 56.2 µM [inhibitor, partial curve, poor fit]"
11,Cn1ncc2c(C(=O)N3CCC(c4ccccc4)CC3)cc(-c3ccccc3C(F)(F)F)nc21,active: 44.7 µM
12,CC(C)(Oc1nn(Cc2cccc(Cl)c2)c2ccccc12)C(=O)NCC1CCOCC1,"inconclusive: 44.7 µM [inhibitor, partial curve, poor fit]"
13,CC(C)c1cccc(NC(=O)C2CCN(C(=O)c3ncn4c3COC(c3ccc(F)cc3)C4)CC2)c1 (stereo not given),"inconclusive: 79.4 µM [inhibitor, partial curve, poor fit]"
14,CCOC(=O)c1ccc(NC(=O)C2CC(=O)N(c3n[nH]c4ccccc34)C2)cc1 (stereo not given),"inconclusive: 70.8 µM [inhibitor, single point]"
15,COCCN1C(=O)CS(=O)C12CCN(C(=O)c1ccsc1)CC2 (stereo not given),inactive
16,NC[C@H]1O[C@H](Cc2cc(-c3cccc(O)c3)on2)CC[C@@H]1O,inactive
17,COCCCNc1cc(-c2ccc(Cl)cc2)nc2c(C)noc12,"inconclusive: 70.8 µM [inhibitor, partial curve]"
18,Cc1ccc([C@@H]2CN(C(=O)c3c(-c4ccccc4)noc3C)C[C@H]2N(C)C)cc1,"inconclusive: 63.1 µM [inhibitor, partial curve, poor fit]"
19,COc1ccc(C(=O)N2CCN3CCS(=O)(=O)N(C4CC4)C(=O)C3C2)c(OC)n1 (stereo not given),inactive
20,COc1ccc(-c2cc(N3CCC(NC(=O)c4cc(F)ccc4Cl)C3)n[nH]2)cc1 (stereo not given),"inconclusive: 44.7 µM [inhibitor, partial curve, poor fit]"
21,CNC(=O)c1cc(C)nc2onc(C3CCCN3C(=O)c3ccccc3)c12 (stereo not given),inactive
22,CCCn1c(C)cnc1C1CCN(S(=O)(=O)c2cnn(CC)c2)C1 (stereo not given),inactive

row,SMILES,Potency
1,Cc1ccc(C(=O)N2CCc3nc(-c4ccccc4)nc(-c4ccc(Cl)cc4)c3C2)cc1,"inconclusive: 50.1 µM [inhibitor, partial curve, poor fit]"
2,Cc1ccncc1C(=O)N1CCCC(c2nc(-c3cccnc3)no2)CCNC(=O)CC1 (stereo not given),inactive
3,COc1ccc(Cl)cc1-c1ccc2c(c1)C(=O)N1CC[C@H](N)C[C@H]1C(=O)N2,active: 25.1 µM
4,CN1CC(=O)N(C2CCCCC2)Cc2c1ncnc2N1CCN(c2ncccn2)CC1,active: 44.7 µM
5,Cc1ccc(NS(=O)(=O)c2ccccc2)c(=O)n1CC(=O)NC(C)c1ccccc1 (stereo not given),inactive
6,COC[C@@H]1CN(S(=O)(=O)c2ccccc2)C[C@H]1c1ccncc1,inactive
7,Cc1noc(C)c1-c1cc2cc(CNC3CC3)oc2c(NC2CCN(C)CC2)n1,active: 39.8 µM
8,COC(=O)[C@@H]1Cc2ncn(Cc3ccc(Cl)cc3)c2CN1C(=O)c1ccccc1,inactive
9,COc1cccc(C2Cn3nnc(-c4nc(-c5ccccc5F)no4)c3CO2)c1 (stereo not given),"inconclusive: 100 µM [inhibitor, single point]"
10,CC(=O)NCC(=O)N1CCCC(C(=O)Nc2cccc(-c3ccc(F)cc3)c2)C1 (stereo not given),"inconclusive: 20 µM [inhibitor, full curve, poor fit]"
11,Oc1ccc(CN2CCCCC2c2nc(CCOCC3CC3)no2)cc1 (stereo not given),"inconclusive: 89.1 µM [inhibitor, single point]"
12,CC(C)(C)C(=O)N1CCC(N2CCCC(C(=O)NCc3ccccc3)C2)CC1 (stereo not given),inactive
13,COc1ccc(-c2ccnc(N[C@H]3CO[C@H]4[C@@H]3OC[C@@H]4NC(=O)c3ccc(C)cc3)n2)cc1,"inconclusive: 35.5 µM [inhibitor, full curve, poor fit]"
14,CCNC(=O)CN1CN(c2ccccc2)C2(CCN(C(=O)NC34CC5CC(CC(C5)C3)C4)CC2)C1=O,"inconclusive: 56.2 µM [inhibitor, partial curve, poor fit]"
15,CCOc1ccc(C(=O)N2CCN(c3cc(-c4ccccc4)[nH]n3)CC2)cc1OCC,"inconclusive: 50.1 µM [inhibitor, partial curve, poor fit]"
16,Cc1cnc(CC2CCN(C(=O)CCc3nc4ccccc4s3)CC2)n1CC1CC1,"inconclusive: 50.1 µM [inhibitor, partial curve, poor fit]"
17,CCC1=C(C(=O)OC)C(c2ccccc2OC)N2C(CC(=O)NCc3ccco3)=CSC2=N1 (stereo not given),"inconclusive: 89.1 µM [inhibitor, single point]"
18,O=C(Nc1cccc(Cl)c1)C1CCc2nnc(C3CC3)n21 (stereo not given),inactive
19,CCOCCCNC(=O)CCc1cc2cc(C)ccc2[nH]c1=O,inactive
20,CCOc1cccc(CNC(=O)c2cc3c(N4CCCC4)nc(C)cn3n2)c1,"inconclusive: 89.1 µM [inhibitor, single point]"
21,Cn1ncc2c(C(=O)NCc3cccc(Cl)c3)cc(-c3ccsc3)nc21,active: 31.6 µM
